According to ChEMBL document CHEMBL5543144, “Discovery of a Novel Potent Tetrazole Antifungal Candidate with High Selectivity and Broad Spectrum” (J Med Chem, 2024):
≈ marks a conversion by molar mass, not a printed value.

What was measured:
Cytochrome P450 1A2 = molecular target: T1, Cytochrome P450 1A2 (Homo sapiens, UniProt P05177); assay: Inhibition of CYP1A2 in human liver microsomes using phenacetin as substrate in presence of NADPH by LC-MS/MS analysis
T1 sequence (P05177 whole entry): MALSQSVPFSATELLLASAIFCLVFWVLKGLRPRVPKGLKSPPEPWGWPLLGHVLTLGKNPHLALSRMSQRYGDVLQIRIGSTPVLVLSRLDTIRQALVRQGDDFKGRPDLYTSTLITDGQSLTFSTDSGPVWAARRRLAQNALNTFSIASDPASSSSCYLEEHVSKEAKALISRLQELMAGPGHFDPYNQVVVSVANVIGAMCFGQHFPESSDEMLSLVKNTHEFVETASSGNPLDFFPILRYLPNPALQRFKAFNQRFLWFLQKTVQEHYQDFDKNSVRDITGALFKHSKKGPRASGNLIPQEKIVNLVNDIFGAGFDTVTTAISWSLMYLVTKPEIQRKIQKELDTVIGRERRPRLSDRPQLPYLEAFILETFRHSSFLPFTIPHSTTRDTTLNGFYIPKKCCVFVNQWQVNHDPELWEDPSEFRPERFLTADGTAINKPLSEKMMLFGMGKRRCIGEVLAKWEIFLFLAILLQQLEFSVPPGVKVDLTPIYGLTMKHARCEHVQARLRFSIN

Cytochrome P450 2C9 = Cytochrome P450 2C9 (Homo sapiens, UniProt P11712)
Cytochrome P450 2C19 = Cytochrome P450 2C19 (Homo sapiens, UniProt P33261)
Cytochrome P450 2D6 = Cytochrome P450 2D6 (Homo sapiens, UniProt P10635)
[1] = Cytotoxicity against HUVEC cells assessed as inhibition of cell growth incubated for 24 hrs by MTT assay; type: toxicity, cell-based; details: human
[2] = molecular target: Voltage-gated inwardly rectifying potassium channel KCNH2 (Homo sapiens, UniProt Q12809)
in vitro = details: human, caco-2

Sequence of Cytochrome P450 2C19 (P33261 whole entry): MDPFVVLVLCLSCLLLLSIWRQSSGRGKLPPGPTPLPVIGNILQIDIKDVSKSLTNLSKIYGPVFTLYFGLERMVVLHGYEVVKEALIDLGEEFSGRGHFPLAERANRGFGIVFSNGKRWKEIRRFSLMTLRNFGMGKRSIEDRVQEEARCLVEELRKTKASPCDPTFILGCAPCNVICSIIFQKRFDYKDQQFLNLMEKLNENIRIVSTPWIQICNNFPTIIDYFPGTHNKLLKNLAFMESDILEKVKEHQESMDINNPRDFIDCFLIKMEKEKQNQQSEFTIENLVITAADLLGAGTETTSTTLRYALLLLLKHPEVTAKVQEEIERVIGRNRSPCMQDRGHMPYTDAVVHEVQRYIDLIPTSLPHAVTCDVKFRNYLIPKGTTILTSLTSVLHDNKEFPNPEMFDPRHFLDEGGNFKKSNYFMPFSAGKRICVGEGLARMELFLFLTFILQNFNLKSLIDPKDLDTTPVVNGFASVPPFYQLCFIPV
Sequence of Cytochrome P450 2C9 (P11712 whole entry): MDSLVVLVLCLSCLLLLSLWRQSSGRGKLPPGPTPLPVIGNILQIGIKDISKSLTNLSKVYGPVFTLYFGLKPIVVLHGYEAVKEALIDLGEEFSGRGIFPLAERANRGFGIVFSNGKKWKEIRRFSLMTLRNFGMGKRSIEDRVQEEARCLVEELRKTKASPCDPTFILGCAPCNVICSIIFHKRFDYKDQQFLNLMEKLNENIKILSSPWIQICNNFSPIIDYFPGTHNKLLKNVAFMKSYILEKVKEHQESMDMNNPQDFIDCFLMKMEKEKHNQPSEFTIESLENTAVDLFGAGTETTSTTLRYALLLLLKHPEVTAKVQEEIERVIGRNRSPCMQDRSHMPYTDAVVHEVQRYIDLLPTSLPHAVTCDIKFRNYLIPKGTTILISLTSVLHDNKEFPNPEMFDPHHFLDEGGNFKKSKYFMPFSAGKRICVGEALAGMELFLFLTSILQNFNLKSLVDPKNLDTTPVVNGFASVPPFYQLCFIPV
Sequence of Cytochrome P450 2D6 (P10635 whole entry): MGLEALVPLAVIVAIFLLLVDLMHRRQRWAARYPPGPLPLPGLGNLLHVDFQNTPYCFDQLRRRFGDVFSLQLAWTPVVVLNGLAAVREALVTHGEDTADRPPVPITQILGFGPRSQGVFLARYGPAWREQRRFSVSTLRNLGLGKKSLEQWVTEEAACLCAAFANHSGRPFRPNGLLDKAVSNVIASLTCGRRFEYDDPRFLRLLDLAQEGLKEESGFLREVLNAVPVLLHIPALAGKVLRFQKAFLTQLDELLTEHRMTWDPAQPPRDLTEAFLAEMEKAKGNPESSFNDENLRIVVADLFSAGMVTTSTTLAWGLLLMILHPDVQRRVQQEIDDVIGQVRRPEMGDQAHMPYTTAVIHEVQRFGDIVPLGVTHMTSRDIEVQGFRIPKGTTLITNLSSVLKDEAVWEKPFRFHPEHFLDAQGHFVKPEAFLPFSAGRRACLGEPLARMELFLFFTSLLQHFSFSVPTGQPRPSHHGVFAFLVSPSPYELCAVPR
Sequence of Voltage-gated inwardly rectifying potassium channel KCNH2 (Q12809 whole entry): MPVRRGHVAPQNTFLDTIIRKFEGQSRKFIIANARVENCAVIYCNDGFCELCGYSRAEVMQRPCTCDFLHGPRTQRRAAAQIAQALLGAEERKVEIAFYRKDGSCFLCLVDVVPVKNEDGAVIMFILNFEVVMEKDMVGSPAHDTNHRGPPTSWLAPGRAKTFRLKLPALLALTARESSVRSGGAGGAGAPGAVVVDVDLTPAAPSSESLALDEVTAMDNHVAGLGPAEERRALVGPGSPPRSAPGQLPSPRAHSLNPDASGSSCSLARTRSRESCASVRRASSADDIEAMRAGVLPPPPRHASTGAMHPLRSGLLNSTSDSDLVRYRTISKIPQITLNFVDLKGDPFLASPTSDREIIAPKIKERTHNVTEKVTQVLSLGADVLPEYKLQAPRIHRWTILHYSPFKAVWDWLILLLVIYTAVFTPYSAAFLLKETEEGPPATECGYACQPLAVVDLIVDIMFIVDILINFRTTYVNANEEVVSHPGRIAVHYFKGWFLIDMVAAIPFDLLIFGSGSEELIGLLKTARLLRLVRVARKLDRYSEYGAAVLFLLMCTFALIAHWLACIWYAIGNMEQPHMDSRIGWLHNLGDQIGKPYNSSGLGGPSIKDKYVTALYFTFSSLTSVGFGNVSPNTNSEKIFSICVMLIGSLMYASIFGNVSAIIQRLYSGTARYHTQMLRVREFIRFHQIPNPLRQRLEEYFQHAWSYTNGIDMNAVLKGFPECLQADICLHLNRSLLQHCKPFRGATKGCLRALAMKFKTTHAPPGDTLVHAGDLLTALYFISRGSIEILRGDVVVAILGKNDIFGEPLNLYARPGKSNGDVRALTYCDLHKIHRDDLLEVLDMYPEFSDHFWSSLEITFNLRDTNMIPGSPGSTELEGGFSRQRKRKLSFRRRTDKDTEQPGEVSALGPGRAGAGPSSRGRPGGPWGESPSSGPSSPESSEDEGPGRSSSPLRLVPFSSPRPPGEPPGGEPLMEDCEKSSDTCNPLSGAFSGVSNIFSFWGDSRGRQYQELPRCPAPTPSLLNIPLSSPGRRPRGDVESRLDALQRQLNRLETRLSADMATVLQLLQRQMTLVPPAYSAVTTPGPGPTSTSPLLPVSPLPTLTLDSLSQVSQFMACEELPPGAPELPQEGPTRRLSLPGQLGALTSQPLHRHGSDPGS

| Compound | IC50 (Cytochrome P450 1A2) [µM] | IC50 (Cytochrome P450 2C9) [µM] | IC50 (Cytochrome P450 2C19) [µM] | IC50 (Cytochrome P450 2D6) [µM] | IC50 at 24 h [1] [µg/mL] | IC50 [2] [µM] | IC50 at 24 h (in vitro) [µg/mL] |
| --- | --- | --- | --- | --- | --- | --- | --- |
| C[C@@H](n1ncc2cc(Cl)ccc2c1=O)[C@](O)(Cn1cnnn1)c1ccc(F)cc1F | 48.1 | 19.1 | 10.5 | 18.1 | – | – | – |
| C[C@@H](n1cnc2cc(Cl)ccc2c1=O)[C@](O)(Cn1cnnn1)c1ccc(F)cc1F | 50.7 | 15.3 | 11.9 | 16.4 | – | – | – |
| C[C@@H](n1ccc2cc(Cl)ccc2c1=O)[C@](O)(Cn1cncn1)c1ccc(F)cc1F | 76.9 | 9.4 | 6.94 | 69.3 | – | – | – |
| C[C@@H](n1ncc2cc(Cl)ccc2c1=O)[C@](O)(Cn1cncn1)c1ccc(F)cc1F | > 100 | 10.7 | 8.02 | > 100 | – | – | – |
| C[C@@H](n1ccc2cc(Cl)ccc2c1=O)[C@](O)(Cn1cnnn1)c1ccc(F)cc1F | 24.6 | 7.33 | 5.26 | 14.6 | > 64 | 16 | 64 (≈ 148 µM) |
